# Test results taken from PubChem BioAssay AID651820 (National Center for Advancing Translational Sciences (NCATS), 2012).
# Several values for one entry are separate records, joined by “and”; a condition that tells them apart may be missing. Equal entries are not always repeated. The campaign covered roughly 340,000 compounds. About 12,000 (3.5%) were called active. Inconclusive means that the source gave no clear call. Such entries were picked first, then a sample of the others. Calls follow the shape of the dose curve; as a rule, active = well fitted inhibition curve with a large enough effect; inconclusive = small, poorly fitted or top-dose-only effect, or another doubt; inactive = no such curve, though single readings can be large or run the other way. A potency beside an inconclusive call is a rough fit, not a confirmed value.
# Experiment: qHTS Assay for Inhibitors of Hepatitis C Virus (HCV)
# Details: Huh7.5.1 HCVcc-Cre (HCVcc is cell-culture hepatitis C virus) infection, luciferase reporter, 44 h; series mostly up to 41.8 µM
# Procedure, shortened: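 Cells (1,000/well) were plated 4 h before compound, then infected with HCVcc-Cre virus (~0.5 moi). After 44 h further culture, infection was read as luciferase luminescence following a 15 min substrate incubation at room temperature.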
# Potency is read from the fitted curve at half-maximal effect; tags tell the direction and shape of the fitted curve.
row,Structure (SMILES),Potency
1,O=[N+]([O-])c1cc2no[n+]([O-])c2cc1N1CCCCC1,"inconclusive: 31.6 µM [inhibitor, single point]"
2,O=C(CN1C(=O)NC2(CCCC2)C1=O)OCc1c(F)cccc1Cl,inactive
3,CCN(CC(O)Cn1c2ccccc2c2ccccc21)S(=O)(=O)c1ccc(F)cc1 (centres undefined),"inconclusive: 31.6 µM [inhibitor, single point]"
4,O=C(COc1ccc(Cl)cc1Cl)NCCC1=CCCCC1,"inconclusive: 11.2 µM [inhibitor, partial curve]"
5,CCCCCCn1c2c(c(=N)c3c1CCC3)CCC2,active: 10 µM
6,Cc1ccc(C(=O)N2CCCC2)cc1S(=O)(=O)Nc1cccc(C)c1C,inactive
7,COc1ccc(NC(=O)c2ccc(=O)[nH]c2)cc1S(=O)(=O)N1CCCCC1,inactive
8,O=C(Nc1ccccc1)C1=C[C@@H](c2coc3ccccc3c2=O)C[C@@H](OCc2ccc(CO)cc2)O1,"inconclusive: 5.01 µM [inhibitor, single point]"
9,N/C(=N\OC(=O)C12CC3CC(CC(C3)C1)C2)c1cccnc1,"inconclusive: 22.4 µM [inhibitor, single point]"
10,COCCn1nnnc1C(C(C)C)N(Cc1ccccc1)Cc1cc2cc(OC)ccc2[nH]c1=O (centres undefined),"inconclusive: 22.4 µM [inhibitor, single point] and inconclusive: 31.6 µM [inhibitor, single point]"
11,C=CC[C@@H]1Cc2c(Br)ccc(Br)c2[C@@H](CC=C)N1,inactive
12,CCOc1ccc2[nH]cc(C(=O)NCCc3ccccc3)c(=O)c2c1,"inconclusive: 22.4 µM [inhibitor, single point]"
13,CC(=O)c1sc(NC(=O)CCN2C(=O)C3CC=CCC3C2=O)nc1-c1ccccc1 (centres undefined),"inconclusive: 11.2 µM [inhibitor, partial curve]"
14,COc1ccc(N2CCN(CCNC(=O)Nc3ccc(C)c(Cl)c3)CC2)cc1,"inconclusive: 0.562 µM [inhibitor, full curve, poor fit]"
15,O=C(NCc1ccccc1)C(=O)Nc1cccc(C(=O)O)c1,inactive
16,CCOC(=O)C1=C(C)NC(C)=C(C(=O)OCC)C1C(=O)OCC(=O)NC1(C#N)CCCCC1,"inconclusive: 3.98 µM [inhibitor, full curve, poor fit]"
17,COc1ccc2c(c1)[C@H]1[C@H](CO2)[C@H](c2ccccc2)[C@]2(C)C(=O)Nc3cc(F)c(F)cc3C(=O)N12,"inconclusive: 10 µM [inhibitor, partial curve]"
18,O=C(CCN1CC1)OCCOC(=O)CCN1CC1,"inconclusive: 12.6 µM [inhibitor, single point]"
19,CCOC(=O)c1sc(-c2ccccc2)cc1NC(=O)CSc1nnnn1C,"inconclusive: 2.24 µM [inhibitor, partial curve]"
20,O=C(Cn1c(=O)c2cccn2c2cccnc21)N1CCN(c2ccc(Cl)cc2)CC1,active: 12.6 µM
21,Nc1nnc(CCCCc2cccs2)o1,inactive
22,Cc1cc(CNC(=O)c2ccc(C)c([N+](=O)[O-])c2)c2ccccc2n1,"inconclusive: 1.12 µM [inhibitor, full curve]"

row,Structure (SMILES),Potency
1,Cc1cc2oc(=O)cc(CN3CCN(S(=O)(=O)/C=C/c4ccccc4)CC3)c2cc1C,"inconclusive: 3.16 µM [inhibitor, full curve]"
2,Cc1cccc(C(=O)N2CCC(c3nc(-c4ccc(S(=O)(=O)N5CCOCC5)cc4)no3)CC2)c1,"inconclusive: 5.62 µM [inhibitor, single point]"
3,COc1cc(OC)cc(C(=O)NCC(=O)N2CC=C(c3ccccc3)CC2)c1,"inconclusive: 11.2 µM [inhibitor, single point]"
4,Cc1c(CCOC(=O)c2ccc(N3CCOCC3)c([N+](=O)[O-])c2)sc[n+]1CC#N,active: 15.8 µM
5,Cc1cc(S(=O)(=O)NCc2ccccc2)ccc1OCC(=O)NCc1ccncc1,inactive
6,CCOc1ccc2nc(NC(=O)Cc3cccs3)sc2c1,"inconclusive: 25.1 µM [inhibitor, single point]"
7,COC(=O)c1c[nH]n2c(=O)c(Cc3ccc(F)cc3Cl)c(C)nc12,inactive
8,COc1ccc(Cl)cc1C(=O)Nc1ccc(N(C)C(C)=O)cc1,"inconclusive: 14.1 µM [inhibitor, single point]"
9,Cc1ccc(C2CC3CCC(C2)N3Cc2ccccc2F)cc1 (centres undefined),"inconclusive: 22.4 µM [inhibitor, single point]"
10,CCCN(CCC)C(=O)CSc1nc2c(sc(=S)n2-c2ccc(OCC)cc2)c(=O)[nH]1,inactive
11,CNC(=S)N1N=C(c2ccc(OC)cc2)CC1c1ccccc1Cl (centres undefined),"inconclusive: 14.1 µM [inhibitor, single point]"
12,O=C(NCC1COc2ccccc2O1)c1ccc(Cl)c(S(=O)(=O)N2CCOCC2)c1 (centres undefined),"inconclusive: 22.4 µM [inhibitor, single point]"
13,CC(C)(C)OC(=O)N1CCC(C(=O)Nc2ccc(C(=O)NCc3ccccc3)cc2)CC1,"inconclusive: 10 µM [inhibitor, partial curve]"
14,O=C(CN1C(=O)NC2(CCCCC2)C1=O)Nc1cccc(S(=O)(=O)N2CCCC2)c1,"inconclusive: 31.6 µM [inhibitor, single point]"
15,NC(N)=NC(N)=Nc1ccc(SC(F)(F)F)cc1,active: 11.2 µM
16,c1ccc2c(c1)[nH]c1c(N3CCOCC3)ncnc12,"inconclusive: 8.91 µM [inhibitor, partial curve, poor fit]"
17,Cc1ncc(CN2CCN(C(C)C)C(CCO)C2)s1 (centres undefined),inactive
18,O=C(Nc1ccc(Cl)cc1)C1C2CCC3C(CCC21)C3(Cl)Cl (centres undefined),"inconclusive: 31.6 µM [inhibitor, single point]"
19,CC(=O)Nc1ccc(C=CC=Cc2cccc([N+](=O)[O-])c2)cc1,inactive
20,NC(=Nc1nc(-c2ccccn2)cc2ccccc12)c1ccccn1,"inconclusive: 3.55 µM [inhibitor, partial curve]"
21,Cc1ncoc1C(=O)Nc1nccs1,inactive
22,Cc1ccc(NC(=S)c2ccncc2)cc1,"inconclusive: 28.2 µM [inhibitor, single point]"
